# The other results are listed elsewhere or left out.
# Tests used:
# [1] = tested on: HSkMC (human skeletal muscle cells); assay: cytotoxicity call (relative viability < 0.9); conditions: 10 µM
# [2] = tested on: HepG2; assay: cytotoxicity call (relative viability < 0.9); conditions: 10 µM
# [3] = tested on: S. aureus RN4220; assay: growth inhibition call (relative growth <= 0.2); conditions: 50 µM
Structure (SMILES),cytotoxicity call [1],cytotoxicity call [2],growth inhibition call [3]
Cc1noc(C)c1S(=O)(=O)N(C)C[C@H]1Oc2ccc(NS(=O)(=O)c3ccccc3)cc2CC(=O)N([C@H](C)CO)C[C@H]1C,inactive,inactive,inactive
CON=C1CC2(CC3CC(CC=C(C)CC(C)C=CC=C4COC5C(O)C(C)=CC(C(=O)O3)C45O)O2)OC(C(C)=CC(C)C)C1C (stereo not given),active,active,inactive
C[C@@H](O)C#Cc1ccc2c(c1)O[C@H](CN(C)C)[C@@H](C)CN([C@@H](C)CO)S2(=O)=O,inactive,inactive,inactive
CO[C@@H]1CN(C)C(=O)c2cc(NS(C)(=O)=O)ccc2OC[C@H](C)N(S(C)(=O)=O)C[C@@H]1C,inactive,inactive,inactive
COCC#Cc1ccc([C@@H]2[C@H](CO)N3C(=O)CN(C(=O)C4CCOCC4)C[C@@H]23)cc1,inactive,inactive,inactive
C[C@H](CO)N1C[C@H](C)[C@H](CN(C)CC2CC2)OCCCC[C@H](C)Oc2ccc(NC(=O)Cc3ccccc3)cc2C1=O,inactive,inactive,inactive
C[C@@H]1CCCCO[C@@H](CN(C)CC2CC2)[C@H](C)CN([C@H](C)CO)C(=O)c2cc(NC(=O)Cc3ccccc3)ccc2O1,inactive,inactive,inactive
Cc1noc(C)c1NC(=O)Nc1cccc2c1O[C@H](CN(C)Cc1ccc(C(=O)Nc3ccccc3N)cc1)[C@H](C)CN([C@@H](C)CO)C2=O,inactive,inactive,inactive
C[C@@H]1CCCCO[C@H](CN(C)Cc2ccncc2)[C@H](C)CN([C@@H](C)CO)C(=O)c2cc(NC(=O)Nc3ccc(C(F)(F)F)cc3)ccc2O1,inactive,active,inactive
Cc1ccc(S(=O)(=O)Nc2ccc3c(c2)C(=O)N([C@H](C)CO)C[C@@H](C)[C@@H](CN(C)Cc2ccc(C(F)(F)F)cc2)O3)cc1,active,active,inactive
Cc1noc(C)c1S(=O)(=O)Nc1cccc2c1O[C@@H](CN(C)S(=O)(=O)c1ccccc1)[C@@H](C)CN([C@@H](C)CO)C2=O,inactive,inactive,inactive
C[C@H](CO)N1C[C@H](C)[C@@H](CN(C)C(=O)c2ccccc2)OCCCC[C@H](C)Oc2ccc(NC(=O)NC3CCCCC3)cc2C1=O,inactive,inactive,inactive
O=C(CCc1ccc(O)cc1)c1c(O)cc(O)cc1O[C@@H]1O[C@H](CO)[C@@H](O)[C@H](O)[C@H]1O,inactive,inactive,inactive
CCOC(=O)[C@H](Cc1c[nH]c2ccccc12)NC(=O)Cn1cc(CN2C(=O)COC[C@H]2c2ccccc2)nn1,inactive,active,inactive
COc1ccc(S(=O)(=O)Nc2ccc3c(c2)CC(=O)N([C@@H](C)CO)C[C@@H](C)[C@@H](CN(C)C)O3)cc1,inactive,inactive,inactive
C[C@@H]1CN([C@@H](C)CO)S(=O)(=O)c2ccc(C#CCN(C)C)cc2O[C@H]1CN(C)S(=O)(=O)c1cccc(F)c1,inactive,inactive,inactive
Cc1cn([C@@H]2C[C@H](O)[C@@H](CO)O2)c(=O)[nH]c1=O,inactive,inactive,inactive
C[C@@H]1CN([C@@H](C)CO)C(=O)c2cc(C#CCC3CCCC3)cnc2O[C@H]1CN(C)C(=O)c1cnccn1,inactive,inactive,inactive
C[C@H](C(=O)NC1CCCC1)N(C(=O)Cn1nnc(-c2ccc3c(c2)OC(F)(F)O3)n1)C1CCCCC1,inactive,inactive,inactive
CCS(=O)(=O)Nc1ccc2c(c1)C(=O)N(C)C[C@H](OC)[C@H](C)CN(Cc1nccs1)[C@H](C)CO2,inactive,inactive,inactive
Cc1noc(C)c1NC(=O)Nc1ccc2c(c1)C(=O)N([C@H](C)CO)C[C@H](C)[C@@H](CN(C)C(=O)NC1CCCCC1)OCCCC[C@@H](C)O2,inactive,inactive,inactive
CNS(=O)(=O)c1cccs1,inactive,inactive,inactive
C[C@@H]1CN([C@@H](C)CO)C(=O)Cc2cc(NC(=O)Cn3cnnn3)ccc2O[C@@H]1CN(C)Cc1ccncc1,inactive,inactive,inactive
C=CCN1C(=O)[C@@]2(O[C@@H](CCn3cc([C@H](O)c4ccccc4)nn3)[C@H]([Si](C)(C)c3ccc(OC)cc3)[C@H]2C)c2cc(N3C(=O)c4cccc5cccc3c45)ccc21,inactive,inactive,inactive
C[C@@H]1CCCCO[C@H](CN(C)C(=O)NC2CCCCC2)[C@@H](C)CN([C@H](C)CO)C(=O)c2cc(NS(=O)(=O)c3ccc(F)cc3)ccc2O1,inactive,inactive,inactive

# From the antibiotic and cytotoxicity screens of Wong et al. (2023)
